Results: PMC9530240, “Macromolecular crowding and supersaturation protect hemodialysis patients from the onset of dialysis-related amyloidosis” (Nature Communications, 2022)

Tests used:
serum albumin [1] = biological target: T1, serum albumin; experiment: quartz crystal microbalance (QCM); β2m monomer immobilised on the gold-coated quartz resonator (SAM, NHS/EDC) in 20 mM NaPi pH 7.4; serum albumin at various concentrations flowed at ~0.5 mL/min; 37 °C; KD = kd/ka from a linear fit of α against albumin concentration, 1:1 stoichiometry assumed; n = 3; settings: both partners purified
T1 construct: serum albumin, MW ~66.2 kDa; neither species nor supplier is stated for the isolated protein used in the QCM, NMR and HANABI experiments

serum albumin [2] = biological target: T1, serum albumin; experiment: NMR titration; 1H-15N HSQC of 15N-labelled β2m at 1.0 mg/mL with varying concentrations of serum albumin; 20 mM sodium phosphate pH 7, 100 mM NaCl, 2% D2O; 37 °C; KD estimated from the decrease in signal intensity; settings: both partners purified

Kd (serum albumin [1]): 492 µM
Kd (serum albumin [2]): ~500 µM
B1: recombinant β2-microglobulin monomer with an additional methionine residue at the N terminus (natural protein)
chain: not shown
modifications: uniformly 15N-labelled in the NMR experiment only
notes: additional methionine residue at the N terminus, told in words; β2-microglobulin, the globular protein of 99 amino acid residues (the mature protein without its signal peptide); MW ~11.8 kDa; No tag is named; In the QCM experiment it was coupled to the sensor by NHS/EDC; also called β2m monomer; N (native state)
